The results in this text go back to ChEMBL document CHEMBL1201862, “PubChem BioAssay data set” (2004).

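Protocol summary: plate cells (96-well), add compound at 5 concentrations, incubate 48 h, interpolate endpoints linearly. Abbreviation: GI50, concentration required for 50% inhibition of growth.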 Active and inactive are the calls of the source. No stated cut-off is given here; in the data, active = GI50 up to about 1.1 µM and inactive = higher.

For the assay, the system named is NCI-H322M. The experiment in a line: NCI-60 cell line screen, 48 h.
As to `CN1CCN(CC(=O)N2c3ccccc3Sc3cc4ccccc4cc32)CC1`, the GI50 is inactive: 14.8 µM.

With `O=C1C=CC(=NNc2ccccc2)C=CC1=O`, the GI50 is inactive: 13 µM.

As to `O=[N+]([O-])c1ccc(NN=C2c3ccccc3Cc3ccccc32)c([N+](=O)[O-])c1`, the GI50 was inactive: 4.23 µM.

For `CC12C=CC(=O)C=C1CCC1C3CCC(O)(C(=O)CO)C3(C)CC(O)C12F` (centres undefined), the GI50 was inactive: > 100 µM.

With `Cc1cc(C)c(O)c(Cc2cccc(Cc3cc(C)cc(C)c3O)c2O)c1`, the GI50 is inactive: > 100 µM.

Take `COc1cccc(/N=N/N2CCCC2)c1`: the GI50 was inactive: > 100 µM.

For the compound `O=C1CCCCC(=O)Nc2ccccc2N1`, the GI50 was inactive: > 100 µM.

As for `CC1CC(C)CN(S(=O)(=O)c2cc(Cl)c(Oc3ccc([N+](=O)[O-])cc3Cl)c(Cl)c2)C1` (centres undefined), the GI50 was inactive: > 100 µM.

In the case of `O=C(C=P(c1ccccc1)(c1ccccc1)c1ccccc1)c1ccc(-c2cccc([N+](=O)[O-])c2)cc1`, the GI50 was inactive: 4.29 µM.

`Clc1nc(Cl)nc(NC23CC4CC(CC(C4)C2)C3)n1`: the GI50 is inactive: 21.6 µM.

Consider `C=CCOCn1ccc(=O)[nH]c1=O`, for which the GI50 is inactive: > 100 µM.

For the compound `C/C(=C\c1ccc(Cl)c(Cl)c1)[N+](=O)[O-]`, the GI50 was inactive: 14.9 µM.

With `CCOP(=O)(OCC)C1CC(O)CN1OC(=O)C(C)(C)C` (centres undefined), the GI50 was inactive: > 100 µM.

As to `CCN(CC)CCC(=O)c1ccc(Sc2ccc(F)cc2)cc1`, the GI50 is inactive: 15.3 µM.

In the case of `CC(C)(C)OC(=O)N(O)CCCn1cnc2c(N)ncnc21`, the GI50 is inactive: > 100 µM.

Take `Cc1nc(O)nc(N/N=C/c2ccc(Cl)c(Cl)c2)c1C(=O)Nc1ccc(Cl)c(Cl)c1`: the GI50 is inactive: > 35.1 µM.

For the compound `CCOC(=O)COc1ccc2c(C)cc(=O)oc2c1`, the GI50 is inactive: > 100 µM.

Regarding `NS(=O)(=O)c1ccccc1C(=O)N/N=C(\c1nc2ccc([N+](=O)[O-])cc2[nH]c1=O)C(O)c1ccc([N+](=O)[O-])cc1` (centres undefined), the GI50 is inactive: > 100 µM.

On to `COC1OC(COS(=O)(=O)c2ccc(C)cc2)C(O)C(OS(=O)(=O)c2ccc(C)cc2)C1OS(=O)(=O)c1ccc(C)cc1` (centres undefined), for which the GI50 was inactive: > 100 µM.

On to `Cc1cccc2c(N)c3cccc(C(=O)NCC[N+](C)(C)Cc4c([N+](=O)[O-])ncn4C)c3nc12`, for which the GI50 was inactive: 40.6 µM.

With `CCCCS(=O)(=O)CCC(N)P(=O)(O)O` (centres undefined), the GI50 was inactive: > 100 µM.

In the case of `CC(CCC=O)CCOCc1ccccc1` (centres undefined), the GI50 is inactive: > 100 µM.

On to `O=C(CC(=O)C(=O)Nc1ccccc1)CC(c1ccccc1)c1c(O)c2ccccc2oc1=O` (centres undefined), for which the GI50 is inactive: > 100 µM.

For `CC1(c2cccc(C(F)(F)F)c2)CC(c2cccc(C(F)(F)F)c2)=C(C#N)C(=C(C#N)C#N)N1` (centres undefined), the GI50 is inactive: 15.8 µM.

With `COC1CCON1C(=O)c1ccccc1` (centres undefined), the GI50 is inactive: > 10 µM.

Consider `CC(=O)O[C@H]1CC2C=CC3C(CCC31)O2` (some centres undefined), for which the GI50 was inactive: > 100 µM.

On to `Cn1c(=O)c2sc3cc4c(cc3c2c2ccccc21)sc1c(=O)n(C)c2ccccc2c14`, for which the GI50 is inactive: > 100 µM.

Take `Fc1ccccc1CN1COc2c(cc(Cl)c3cccnc23)C1`: the GI50 was inactive: 2.11 µM.

As to `C=C(C1=CC(=O)C(C)(C)O1)[C@@H]1CC=C([C@@H]2CC[C@H]3[C@@]2(C)CC[C@H]2C(C)(C)C(=O)[C@H](O)C[C@]32C)[C@H](O)O1`, the GI50 is inactive: 11.8 µM.

Take `COC(=O)c1cc2c3c(cc(NCCN)c2[nH]1)N(C(=O)c1cc2cc(OC)c(OC)c(OC)c2[nH]1)CC3CCl` (centres undefined): the GI50 was active: 0.0638 µM.

`CCCCCCCCCCCCCCCCCc1nc(C#N)c(N)o1`: the GI50 was inactive: > 100 µM.

As for `Cc1cc(C)c(S(=O)(=O)N(CCCN)OCCCN)c(C)c1`, the GI50 was inactive: > 100 µM.

In the case of `S=C(N/N=C(/c1ccccc1)c1ccccn1)N(Cc1ccccn1)Cc1ccccn1`, the GI50 was active: 0.112 µM.

With `Cn1c2ccccc2c2[nH]c3ccccc3c(=O)c21`, the GI50 was inactive: > 100 µM.

With `CN/N=C(\C)c1c(O)cc(C)oc1=O`, the GI50 is inactive: > 100 µM.

On to `OCC1OC(n2cnc3c(Cl)nc(Nc4ccc(Cl)c(Cl)c4)nc32)CC1O` (centres undefined), for which the GI50 is inactive: 15.8 µM.

Take `CC(=O)NC1=CC(=O)c2cc(C)cc(O)c2C1=O`: the GI50 was inactive: 17.6 µM.

For `COc1c(O)c(O)c2c(c1O)C(=O)c1cc(C)cc(O)c1C2=O`, the GI50 was inactive: 44.1 µM.

For the compound `Clc1ccc(C2ON=C(c3ccccc3)N2C23CC4CC(CC(C4)C2)C3)cc1Cl` (centres undefined), the GI50 was inactive: > 10 µM.

For `CCOC(=O)C(Cc1c[nH]c2cc([N+](=O)[O-])ccc12)NS(=O)(=O)c1ccc2ccccc2c1` (centres undefined), the GI50 is inactive: 22.7 µM.

As for `CCOC(=O)C(/C(=N/NC(=O)OC)C(=O)Nc1ccc(C(C)=O)cc1)c1cnc2ccccc2n1` (centres undefined), the GI50 is inactive: > 100 µM.

For `O=C1c2ccccc2C(=O)N1c1ccc(OCCN2CCCCC2)cc1`, the GI50 was inactive: > 100 µM.

Turning to `C=CC1(c2ccc3ccccc3c2)OCC(CC)(CC)CO1`, the GI50 was inactive: 20.6 µM.

As for `Clc1cc(OC2C3CC4CC(C3)CC2C4)nc(Cl)n1` (centres undefined), the GI50 was inactive: 17.3 µM.

Take `CCOC(=O)CSC1NC(C(=O)OC)CC1OC` (centres undefined): the GI50 is inactive: > 100 µM.

For the compound `COc1ccc2nc(NC(=O)C(=O)C(C#N)c3ccc([N+](=O)[O-])cc3)sc2c1` (centres undefined), the GI50 is inactive: > 100 µM.

As to `O=C1C=C(Nc2cc(Cl)ccc2Cl)c2ccccc2C1=O`, the GI50 is inactive: 13.8 µM.

On to `CCOC(=O)/C=C(/OCC)[C@@H]1C(C(=O)c2ccc(Cl)cc2)[C@@H]1/C(=C\C(=O)OCC)OCC` (some centres undefined), for which the GI50 is inactive: 53.7 µM.

Turning to `CCOC(=O)/C(=C\c1ccc(CO)o1)P(=O)(OCC)OCC`, the GI50 was inactive: 50.5 µM.

`C#CCn1c(=O)c2cc(OC)c(OC)cc2n(CC#C)c1=O`: the GI50 was inactive: > 10 µM.

As for `O=C(O)c1c(-c2cccc3ccccc23)sc(-c2cccc3ccccc23)c1C(=O)O`, the GI50 was inactive: 60.1 µM.

As for `CN(C)C(=O)/N=C1\SC(=N\c2ccccc2)/C(=N/c2ccccc2)N1c1ccc([N+](=O)[O-])cc1`, the GI50 is inactive: > 100 µM.

On to `CC1=NN(c2ccccc2)C2(C1)C(Cl)C(=O)N2c1nc2ccccc2s1` (centres undefined), for which the GI50 was inactive: 36.5 µM.

Turning to `CC[P+]1(c2ccccc2)[C@@H](C)CC[C@@H]1C`, the GI50 was inactive: > 100 µM.

With `OCC(O)C(OC1OC(CO)C(O)C(O)C1O)c1nn(-c2ccc(Cl)cc2)c2nc3cc(Cl)ccc3nc12` (centres undefined), the GI50 was inactive: > 100 µM.

As for `O=P12N(CCN1c1ccccc1)CCN2c1ccccc1`, the GI50 is inactive: > 100 µM.

`CC1=NN(c2nc(N)nc(CSc3nc4n(c(=S)n3)CCN4)n2)C(C)(C)C1`: the GI50 is inactive: 26.2 µM.

Regarding `COc1ccc(-c2cc(-c3ccc(O)cc3O)c(C#N)c(=O)[nH]2)cc1`, the GI50 is inactive: 22.8 µM.

On to `Cc1cc(C)nc(SC(C)C(=O)N/N=C/c2ccc(OCc3ccccc3)cc2)n1` (centres undefined), for which the GI50 is inactive: 77.1 µM.

Take `CCCCCCOc1ccc(C(=O)NOCc2ccccc2)cc1`: the GI50 is inactive: > 100 µM.

Take `COc1ccc(CNC2=N/C(=C\c3ccccc3Cl)C(=O)N2C)cc1`: the GI50 is inactive: 35.8 µM.

On to `O=C(Nc1ccccc1)O/N=C1/CCCC/C1=C\c1ccccc1`, for which the GI50 is inactive: 19.2 µM.

Regarding `C/C(=N\Nc1nc2ccccc2s1)c1cc(C)ncn1`, the GI50 was active: 0.608 µM.

For `CCOC(=O)c1c(C)n(-c2ccc(C)cc2)c2c1cc(O)c1[nH]c3c(c12)CCCC3`, the GI50 was inactive: 19 µM.

As to `CCOP(=O)(OCC)C1=C(c2ccccc2)OC(N)=C(C#N)C1c1ccc(Cl)cc1` (centres undefined), the GI50 is inactive: > 100 µM.

On to `Nc1nc(Cl)cc(NCCCCCNc2cc(Cl)nc(N)n2)n1`, for which the GI50 was inactive: 24.5 µM.

As for `O=CN1CCN(C=S)CC1`, the GI50 is inactive: > 100 µM.

For the compound `COc1ccc(/N=N/C(=O)NC(CC(C)C)C(=O)NC(Cc2ccccc2)C(=O)O)cc1` (centres undefined), the GI50 was inactive: 94.4 µM.

As to `O=C1NC2(CCCCC2)C2=C1CCCCC2`, the GI50 was inactive: > 100 µM.

On to `Cn1c(=O)cc(NNc2ccc(Br)cc2)[nH]c1=O`, for which the GI50 is inactive: 3.75 µM.

Regarding `COc1cc2c(cc1O)[C@H](Cc1ccc(Oc3cc(C[C@H]4c5cc(OC)c(OC)cc5CCN4C)ccc3OC)cc1)NCC2`, the GI50 was inactive: 16.4 µM.

Consider `O=C1/C(=C/c2ccc(Cl)cc2)NC(=S)N1CN1CCOCC1`, for which the GI50 was inactive: > 100 µM.

Consider `NC(CCc1nc(-c2ccccc2)cs1)C(=O)O` (centres undefined), for which the GI50 is inactive: > 100 µM.

As for `O=C(O)Cc1cc(=O)[nH]c2c1C(=O)CCC2`, the GI50 was inactive: > 100 µM.

As to `COc1ccc2c(CCN)c(C(=O)O)[nH]c2c1`, the GI50 is inactive: > 100 µM.

On to `COC(=O)C1=CO[C@@H](OC2OC(CO)C(O)C(O)C2O)[C@@H]2[C@H](C)[C@@H](O)[C@@H](O)[C@]12O` (some centres undefined), for which the GI50 is inactive: > 100 µM.

Turning to `COc1ccc(/C(Cl)=C(\C=O)c2ccccc2)cc1OC`, the GI50 was inactive: 31.3 µM.

`CCOC(C)OCC#CCCBr` (centres undefined): the GI50 is inactive: > 100 µM.

Turning to `O=C1CC[C@@H](NC(=O)Cc2ccccc2)C(=O)N1`, the GI50 was inactive: > 100 µM.

As to `CC1(C)[C@@H]2C[C@H]1c1cnc(-c3ccccn3)cc1C2CCCCC[C@@H]1c2cc(-c3ccccn3)ncc2[C@@H]2C[C@H]1C2(C)C` (some centres undefined), the GI50 is inactive: 3.13 µM.

Regarding `CC12CCCC(C(=O)O)(C1)[C@H](C(C)(C)C(=O)O)CC2` (some centres undefined), the GI50 is inactive: > 100 µM.

For the compound `O=C1Nc2ccc([N+](=O)[O-])cc2/C1=N/NC(=S)Nc1ccc([N+](=O)[O-])cc1`, the GI50 was inactive: 24.3 µM.

As for `Cc1c(C(=O)/C=C/c2ccc([N+](=O)[O-])cc2)[n+]([O-])c2ccccc2[n+]1[O-]`, the GI50 was inactive: 51.6 µM.

Turning to `Cc1c2cccc-2c(OCCO)cc2c1[nH]c1ccccc12`, the GI50 is inactive: 9.46 µM.
